Reference: the supplement of paper PMC6089552
Out of some 3,200 compounds screened, about 300 (9.4%) showed activity. The entries are a selection whose mix differs from that of the whole data set.

System: A673/TR/shEF
Experiment: cell viability (LOESS-normalised, relative to median of negative controls) (log2 ratio); higher = more viable cells (less compound effect), active = hit call of the paper (over 3 MAD below the median)
Details: treatment time: 72 h
Procedure, shortened: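 Doxycycline, present or absent from 24 h before compounds, was used to induce EWS-FLI1 shRNA knockdown in A673/TR/shEF Ewing sarcoma cells at 1,500 per well in 384-well plates. Cells then received library compounds at two or more concentrations, or DMSO controls, for three days. Viability was measured by CellTiter-Glo luminescence on an Envision reader, and per-plate LOESS correction, division by the negative-control median and log2 transformation followed.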

[1] = 0.25 µM, library screen: screen2, EWS-FLI1 expression: high (no doxycycline)
[2] = 0.25 µM, library screen: screen2, EWS-FLI1 expression: low (doxycycline-induced shRNA knockdown)
[3] = 2.5 µM, library screen: screen2, EWS-FLI1 expression: high (no doxycycline)
[4] = 2.5 µM, library screen: screen2, EWS-FLI1 expression: low (doxycycline-induced shRNA knockdown)
[5] = 0.25 µM, library screen: screen1, EWS-FLI1 expression: high (no doxycycline)
[6] = 0.25 µM, library screen: screen1, EWS-FLI1 expression: low (doxycycline-induced shRNA knockdown)
[7] = 2.5 µM, library screen: screen1, EWS-FLI1 expression: high (no doxycycline)
[8] = 2.5 µM, library screen: screen1, EWS-FLI1 expression: low (doxycycline-induced shRNA knockdown)

Measured: cell viability (log2)

N#Cc1cc2nc(O)c(O)nc2cc1[N+](=O)[O-]
inactive: [1] 0.155 | [2] 0.114 | [3] 0.184 | [4] 0.11

CC(=O)NC(Cc1c[nH]c2ccccc12)C(=O)O (stereo unspecified)
inactive: [5] 0.0224 | [6] 0.127 | [7] 0.0949 | [8] 0.156

CN(C)C(N)=NCCC[C@H](N)C(=O)O
inactive: [1] 0.185 | [2] 0.151 | [3] 0.186 | [4] 0.199

C[C@@H](CN1CCC(Cc2ccccc2)CC1)[C@@H](O)c1ccc(O)cc1
inactive: [1] 0.1 | [2] 0.0193 | [3] 0.216 | [4] 0.107

N[C@@H](Cc1cc(I)c(Oc2ccc(O)c(I)c2)c(I)c1)C(=O)O
inactive: [5] 0.0835 | [6] 0.0286 | [7] 0.137 | [8] 0.123

Nc1c2ccccc2nc2ccccc12
inactive: [5] 0.0717 | [6] 0.0455 | [7] 0.156 | [8] 0.158

CN1CCC(=C2c3ccccc3Sc3ccccc32)CC1
inactive: [5] 0.118 | [6] 0.00102 | [7] 0.16 | [8] 0.11

CC(=O)O[C@H]1CC[C@@]2(C)C(=CC[C@H]3[C@@H]4CC[C@H]([C@H](C)CCCC(C)C)[C@@]4(C)CC[C@@H]32)C1
inactive: [5] 0.0694 | [6] 0.0487 | [7] 0.14 | [8] 0.0189

Cc1ccc(=O)n(-c2ccccc2)c1
inactive: [1] 0.174 | [2] 0.0832 | [3] 0.119 | [4] 0.0238

NO
inactive: [1] 0.0663 | [2] 0.0637 | [3] 0.0896 | [4] 0.0443

Nc1nc(Cl)nc2c1ncn2[C@@H]1O[C@H](CO)[C@@H](O)[C@H]1O
inactive: [1] 0.323 | [2] 0.0766 | [3] 0.0971 | [4] -0.0176

O=c1[nH]c2ccccc2n1CCCN1CCN(C(c2ccccc2)c2ccccc2)CC1
inactive: [1] 0.129 | [2] 0.089 | [3] 0.0833 | [4] 0.142

C[C@@H]1C[C@H]2[C@@H]3CCC4=CC(=O)C=C[C@]4(C)[C@@]3(F)[C@@H](O)C[C@]2(C)[C@@]1(O)C(=O)COP(=O)(O)O
inactive: [5] 0.0323 | [6] -0.0432 | [7] 0.142 | [8] -0.0599

Nc1cc(Cl)c(NC2=NCCN2)c(Cl)c1
inactive: [1] -0.0484 | [2] 0.126 | [3] -0.0109 | [4] 0.0408
